Laboratory results as given in the supplement of paper PMC3334620.
Over roughly 33,000 sequences, “E-score (-0.5 to 0.5)” has its median near -0.054; the highest 2% begin near 0.39. The list shows a part of the results.

biological target: Ylr278c (UniProt Q05854); test: PBM E-score (8-mer binding enrichment) (E-score (-0.5 to 0.5)); higher = stronger / more preferred TF binding; most listed sequences are background and not binding sites; details: protein concentration: 200 nM; construct: GST-DNA-binding domain
Method in brief: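 GST-tagged yeast TFs (full-length or DNA-binding domain) were made by PURExpress in vitro transcription/translation and applied at about 100-200 nM to universal all-10-mer Agilent arrays. The arrays were made double-stranded by primer extension, on fresh or once-stripped slides. Bound protein was detected with fluorescent anti-GST, and scans were normalised with masliner. Each ungapped eight-base word, pooled with its reverse complement, received an E-score (modified Wilcoxon-Mann-Whitney statistic) from the Universal PBM Analysis Suite.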

| Sequence | PBM E-score |
| --- | --- |
| AGCCCTCC | -0.00851 |
| CGAGGCGA | -0.12 |
| AGGCGGAC | 0.386 |
| CGACATGC | 0.0489 |
| AGTTACGA | 0.0146 |
| GCTGAAGC | -0.155 |
| CTCTCTTC | -0.152 |
| AAGCTCAA | -0.279 |
| GATATTAA | 0.214 |
| AGCGAGCG | 0.0111 |
| GATCTTAC | -0.0789 |
| GACACGTC | -0.0904 |
| CTTCAAGA | -0.173 |
| AGGCTTCG | 0.185 |
| ACGCTCCG | 0.399 |
| GATCTTAA | -0.151 |
| GCACGCGC | 0.0902 |
| ACGAGATC | -0.105 |
| ACTGGGCT | -0.0216 |
| AGTAATTG | -0.0243 |
| GTTAAGGA | -0.147 |
| CTTGCCTA | -0.349 |
| AGACTGAC | -0.202 |
| ATGTATAG | -0.156 |
| CACCGGCA | 0.328 |

| Sequence | PBM E-score |
| --- | --- |
| CTGCGTCA | -0.257 |
| AGTTCGTC | -0.1 |
| ATTGCCTA | -0.239 |
| CGCGTCCC | 0.0634 |
| AGTGCCTA | -0.359 |
| ACTGCGAG | -0.0763 |
| AATTTGGG | -0.134 |
| ATCCCAAT | -0.189 |
| AGAGCGCA | -0.126 |
| AACTCGAC | -0.0215 |
| AAGAGGGT | -0.301 |
| AGTCAATC | -0.124 |
| CTAGCATC | -0.167 |
| ACAACTGT | -0.207 |
| CGGGACGC | 0.117 |
| AAGAGCTC | 0.0111 |
| ACCCGATC | 0.119 |
| AAGTGCAG | -0.233 |
| CACCTAGG | -0.172 |
| CTCTCTAA | -0.358 |
| ATCTCCTA | -0.149 |
| CTGAGCCC | -0.111 |
| ACTACACC | 0.00692 |
| AGGTCTCC | -0.0687 |
| CAATAGAA | -0.18 |

| Sequence | PBM E-score |
| --- | --- |
| ACGTGCAC | -0.185 |
| GCCTGAGC | -0.244 |
| ACTACGGG | 0.183 |
| GTGGCAAA | -0.0257 |
| ATGGGGGG | -0.191 |
| GAGCATTA | -0.111 |
| AGGAACGC | -0.0244 |
| CTTTCGGA | 0.451 |
| CCTCAGGC | -0.109 |
| CGATAAAA | 0.217 |
| ACCCTTAC | -0.0675 |
| AACCTTGC | -0.14 |
| CTTTCAAC | -0.0592 |
| GTCGTCCA | -0.0332 |
| ACATATGA | -0.152 |
| AGGGTTAG | -0.249 |
| CGGACTCC | 0.423 |
| AAGACCGG | 0.334 |
| CACGTCTG | -0.205 |
| CAGCTAGG | -0.173 |
| ACGTCACA | -0.158 |
| CGATATAG | -0.0776 |
| CGGTGAAC | 0.144 |
| GGGCGACC | -0.00494 |
| GCGGAACA | 0.344 |

| Sequence | PBM E-score |
| --- | --- |
| AAATACAC | -0.0158 |
| CAACTGCA | -0.174 |
| CTTTGTTA | -0.0347 |
| CACGCTCG | -0.0329 |
| AGCGCCCC | 0.0403 |
| ACCCGTCA | 0.0523 |
| AGTGCAAA | -0.176 |
| ATTATGAC | -0.109 |
| CGGGACCC | 0.274 |
| CTTGAGGA | 0.0479 |
| AATGGGAC | -0.0985 |
| CACGATCG | 0.0663 |
| GTGAGCAC | -0.211 |
| CAGGTGCA | -0.179 |
| CAACATAA | -0.0229 |
| CAAATCGG | 0.319 |
| AGGGAATA | -0.0119 |
| TATATATA | 0.162 |
| ATGCATGG | 0.0517 |
| AGACCTCC | 0.0925 |
| ACGTACGC | -0.181 |
| CAAGCATC | -0.0118 |
| ATCTGGTA | -0.0599 |
| GTAAGTTA | -0.0999 |
| CGTTATTA | 0.08 |

| Sequence | PBM E-score |
| --- | --- |
| ACAAGGAC | -0.287 |
| CTCGTCTC | 0.0125 |
| CTCTTCAG | -0.268 |
| CCTACGGA | 0.202 |
| GCCGTTTA | 0.124 |
| CGTTTGTA | -0.0913 |
| GAAGTGGC | -0.091 |
| AGGCGCTG | 0.117 |
| ATGTTCAC | -0.216 |
| CCGACATC | 0.284 |
| TATCCGCA | 0.271 |
| GAGAATCA | -0.0154 |
| ATTCCAGA | 0.0166 |
| CATGGGGA | -0.0651 |
| GATGTCAA | -0.13 |
| CATGCTCC | 0.0684 |
| AGTGCGGG | 0.258 |
| AGAACAGA | -0.0019 |
| CTTTTGAC | -0.262 |
| CGACCAAG | -0.188 |
| TGGAAAAA | 0.00585 |
| AGTACTAG | -0.206 |
| TAGAGCCA | -0.334 |
| CATGAGTC | -0.228 |
| AATGAATC | -0.211 |

| Sequence | PBM E-score |
| --- | --- |
| CACTTCTG | -0.173 |
| CATTTTTA | -0.0238 |
| AGCTGCTA | -0.313 |
| CACTAATC | 0.2 |
| GCTACGAC | 0.0162 |
| AACGACTC | -0.234 |
| CAGCGCGC | 0.0979 |
| ACCGGCAG | 0.211 |
| CTGGAAAC | -0.177 |
| GCTACACA | -0.217 |
| CTACATTC | 0.0132 |
| GGAAAACC | 0.166 |
| GCCCGTCA | 0.127 |
| CTATTCCC | 0.0244 |
| ATTGGGAA | -0.0378 |
| TGCTTTAA | -0.128 |
| GACGTTCA | -0.0489 |
| GCGGCCCA | 0.137 |
| CCCTTACA | -0.0786 |
| CCGAGTGC | 0.278 |
| AATCCTGA | -0.137 |
| CATGTTCA | -0.309 |
| ATTAGTAA | 0.0338 |
| ATCGTTCG | 0.0345 |
| GAGCCCTA | -0.00115 |

| Sequence | PBM E-score |
| --- | --- |
| CACGAATC | -0.0738 |
| CGTATACA | -0.171 |
| CATCCATC | 0.0088 |
| GCGTCGAC | -0.0158 |
| GTTCTTGA | -0.156 |
| AGTGGGTG | -0.0443 |
| AACCCTGG | -0.22 |
| CCTTGACA | -0.233 |
| CTTTTTGA | -0.147 |
| ACATATCT | 0.0217 |
| ACTTAGCC | -0.186 |
| CGCTGTTA | 0.075 |
| AATGTGTG | -0.07 |
| GTGTCGAA | -0.112 |
| AACAAAGG | -0.0718 |
| CCGACTTA | 0.215 |
| CCACCACA | 0.00265 |
| ATTGTGTA | 0.00738 |
| AGAGTCAG | -0.0739 |
| AGCAGGAG | 0.0513 |
| AACCTAAA | -0.0676 |
| AGATGATA | 0.0211 |
| CACACTTC | -0.0914 |
| CATTGCCG | 0.169 |
| AGTAGACA | 0.0993 |

| Sequence | PBM E-score |
| --- | --- |
| CCCGTCAA | 0.16 |
| AGGTACGA | -0.129 |
| GAAGCCAC | 0.00034 |
| AAACAGCT | -0.108 |
| GAAGCAGA | -0.192 |
| GATGAATA | -0.0352 |
| AGTCCCAT | -0.0893 |
| TCTGTCCA | 0.0679 |
| GAACCCTA | -0.014 |
| AGAGTTTC | -0.11 |
| CAGGAGTA | -0.0482 |
| CGGATTTC | 0.448 |
| TCAGGGGA | -0.247 |
| AAATCTCG | 0.11 |
| CCCCGCAA | 0.225 |
| CCACCTTC | -0.177 |
| CAGTGAGG | -0.256 |
| GGTTCGAA | 0.0257 |
| CCTCTCAA | 0.0673 |
| ACAAGCAG | -0.0116 |
| CACTTGCG | -0.117 |
| ATGTGCGC | 0.0456 |
| CAGTGGAG | -0.0746 |
| CGGCTTCA | 0.164 |
| AGGCGTAG | -0.179 |

| Sequence | PBM E-score |
| --- | --- |
| CGCTCGGC | 0.259 |
| CCCGACCA | 0.266 |
| GTCCGCAC | 0.308 |
| ACGGACGT | 0.23 |
| CAATTGCA | -0.11 |
| GATGAGCA | -0.145 |
| AATAGAAA | -0.0484 |
| CACAAAGC | -0.122 |
| TGCGGAAA | 0.334 |
| CACTAGAG | -0.21 |
| AGTCGCGG | 0.121 |
| ACGTTACA | -0.406 |
| AACAGCGG | 0.2 |
| TCTCGAAA | -0.21 |
| CGGGCTAG | 0.259 |
| GGTGGAAC | -0.135 |
| AAATTGTC | 0.0669 |
| AAGTCCCG | 0.324 |
| ACGAGAAA | -0.0602 |
